Source: the supplement of paper PMC11876631
± gives the standard deviation of the averaged measurements. Laboratory Escherichia coli strains with one amino-acid change in an essential protein, pooled on minimal glucose agar with carbenicillin or gentamicin at twice the control MIC (plus kanamycin and chloramphenicol for the plasmids), 48 h. Fold change of barcode share against drug-free plates; higher = less susceptible. Active = above 20 in both replicates (the paper's putatively resistant). '<' = one read or none on drug, '>' = one read or none on a drug-free plate. Shares are relative, so most strains fall below 1 when a few take over. Listed are strains with at least 15 reads on both drug-free plates, and hits; most hits rest on fewer reference reads. Replicate rank correlation about 0.5. Edits are read from barcodes.

B1: rpoH; a variant is named by its letters at X, in order (parent)
chain: MTDKMQSLALAPVGNLDSYIRAANAWPMLSADEERALAEKLHYHGDLEAAKTLIXSHLRFVVHIARNYAGYGLPQADLIQEGNIGLMKAVRRFNPEVGVRLXSFAVHWIKAEIHEYVLRNWRIVKVATTKAQRKLFFNLRKTKQRLGWFNQDEVEMVARELGVTSKDVREMESRMAAQDMTFDLSSDDDSDSQPMAPVLYLQDKSSNFADGIEDDNWEEQAANRLTDAMQGLDERSQDIIRARWLDEDNKSTLQELADRYGVSAERVRQLEKNAMKKXRAAIEA
B2: lpxK; a variant is named by its letters at X, in order (parent)
chain: MIEKIWSGESPLWRLXLPLSWXYGLVSGAIRLCYKLKLKRAWRAPVPVVVVGNLTAGGNGKTPVVVWLVEQLQQRGIRVGVVSRGYGGKAESYPLLLSADTTTAQAGDEPVLIYQRTDAPVAVSPVRSDAVKAILAQHPDVQIIVTDDGLQHYRLARDVEIVVIDGVRRFGNGWWXPAGPMRERAGRLKSXDAVIVNGGVPRSGEIPMHLLPGQAVNLRTGTRCDVAQLEHXVAXAGIGHPPRFFATLKMCGVQPEKCVPLADHQSLNHADVSALVSAGQTLVMTEKDAVKCRAFAEENWWYLPVDAQLSGDEPAKLLTQLTLLASGN
B3: pyrC; numbered along this chain (parent)
chain: MTAPSQVLKIRRPDDWHLHLRDGDMLKTVVPYTSEIYGRAIVMPNLAPPVTTVEAAVAYRQRILDAVPAGHDFTPLMTCYLTDSLDPNELERGFNEGVFTAAKLYPANATTNSSHGVTSIDAIMPVLERMEKIGMPLLVHGEVTHADIDIFDREARFIESVMEPLRQRLTALKVVFEHITTKDAADYVRDGNERLAATITPQHLMFNRNHMLVGGVRPHLYCLPILKRNIHQQALRELVASGFNRVFLGTDSAPHARHRKESSCGCAGCFNAPTALGSYATVFEEMNALQHFEAFCSVNGPQFYGLPVNDTFIELVREEQQVAESIALTDDTLVPFLAGETVRWSVKQ

Variants of: B1
Test: barcode share on antibiotic plates over drug-free plates; higher = less susceptible
Settings: with Escherichia coli (laboratory strain); antibiotic: carbenicillin; 2× MIC (3.1 µg/mL)
Experimental: (§1)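 A pool of E. coli strains, each edited to carry one amino-acid change in an essential protein, was grown for 48 h on minimal glucose agar with or without antibiotic; strain barcodes were sequenced; mean of two replicates.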

Variant | fold change of barcode share
LVL F93A | 0.244 ± 0.2
LVL F93Q | 0.158 ± 0.042
LVL F93W | 0.289 ± 0.06
LVL F104A | 0.13 ± 0.086
LVL F104Q | 0.241 ± 0.049
LVL F104W | 0.261 ± 0.08
LVL V61A | 0.238 ± 0.098
LVL V61P | 0.265 ± 0.067
LVL V90A | 0.224 ± 0.15
LVL V90Q | 0.154 ± 0.067
LVP | 0.211 ± 0.032
LVQ | 0.292 ± 0.08
LVW | 0.251 ± 0.028
LWL | 0.341 ± 0.22

Same assay, conditions: with Escherichia coli (laboratory strain); antibiotic: gentamicin; 2× MIC (MIC 0.45 µg/mL)

Variant | fold change of barcode share
LVL F93A | < 0.00235
LVL F93Q | < 0.00283
LVL F93W | 0.00553 ± 0.0028
LVL F104A | < 0.0128
LVL F104Q | < 0.00376
LVL F104W | < 0.00682
LVL V90A | < 0.0138
LVP | 0.0144 ± 0.013
LVQ | 0.0107 ± 0.0046
LVW | < 0.00235
LWL | < 0.00638
PVL | 0.0138 ± 0.0078
LVL F60D | < 0.00245
LVL M87D | < 0.0165
LVL M87Q | < 0.0168

Variants of: B2
Test: as above
Settings: with Escherichia coli (laboratory strain); antibiotic: carbenicillin; 2× MIC (3.1 µg/mL)
Experimental: as §1

Variant | fold change of barcode share
LALVVM | 0.319 ± 0.006
LDLVVM | 0.261 ± 0.16
LLAVVM | 1.27 ± 0.41
LLLAVM | 0.405 ± 0.044
LLLDVM | 0.326 ± 0.0085
LLLPVM | 0.294 ± 0.092
LLLQVM | 0.249 ± 0.067
LLLVAM | 0.272 ± 0.046
LLLVDM | 0.341 ± 0.1
LLLVPM | 0.404 ± 0.064
LLLVQM | 0.33 ± 0.035
LLLVVA | 0.185 ± 0.082
LLLVVM I195A | 0.173 ± 0.046
LLLVVM I195P | 0.437 ± 0.054
LLLVVM I195W | 0.34 ± 0.25
LLLVVP | 0.303 ± 0.074
LLLVVQ | 1.15 ± 0.37
LLLVVW | 0.29 ± 0.082
LLLVWM | 0.313 ± 0.11
LLLWVM | 0.276 ± 0.1
LLPVVM | 0.417 ± 0.045
LLQVVM | 0.624 ± 0.11
LLWVVM | 0.37 ± 0.091
LPLVVM | 0.222 ± 0.08
LQLVVM | 0.192 ± 0.095
LWLVVM | 0.205 ± 0.05

Same assay, conditions: with Escherichia coli (laboratory strain); antibiotic: gentamicin; 2× MIC (MIC 0.45 µg/mL)

Variant | fold change of barcode share
LALVVM | 0.00552 ± 0.00029
LDLVVM | < 0.0143
LLAVVM | < 0.00284
LLLAVM | < 0.00519
LLLDVM | 0.0097 ± 0.0054
LLLPVM | 0.00912 ± 0.0071
LLLQVM | 0.00709 ± 0.0024
LLLVAM | 0.00236 ± 0.0011
LLLVDM | 0.0205 ± 0.021
LLLVPM | 0.00659 ± 0.00097
LLLVQM | 0.00711 ± 0.0025
LLLVVA | < 0.00923
LLLVVM I195A | < 0.01
LLLVVM I195P | 0.015 ± 0.0021
LLLVVM I195W | 0.0104 ± 0.0068
LLLVVP | 0.0224 ± 0.0025
LLLVVQ | < 0.0043
LLLVVW | < 0.00511
LLLVWM | 0.0107 ± 0.011
LLLWVM | < 0.00662
LLPVVM | 0.00585 ± 0.006
LLQVVM | 0.00356 ± 0.00042
LLWVVM | 0.0045 ± 0.0034
LPLVVM | 0.0105 ± 0.0086
LQLVVM | < 0.00782
LWLVVM | < 0.00575
ALLVVM | < 0.00975
WLLVVM | < 0.015
QLLVVM | 0.0192 ± 0.013
PLLVVM | 0.015 ± 0.0033

Variants of: B3
Test: as above
Settings: with Escherichia coli (laboratory strain); antibiotic: carbenicillin; 2× MIC (3.1 µg/mL)
Experimental: as §1

Variant | fold change of barcode share
L20A | 0.258 ± 0.095
L20P | 0.484 ± 0.29
M130A | 0.408 ± 0.14
M162A | 0.4918 ± 0.0013
M162D | 0.7 ± 0.065
M162P | 2.2 ± 0.38
V175D | 0.478 ± 0.11
F176Q | 0.359 ± 0.016
L226A | 1.28 ± 0.11
L226D | > 54.6 [active]
L226P | 0.584 ± 0.12
L226Q | 1.1 ± 0.44
F247A | 0.458 ± 0.21
F247P | > 41.6 [active]
F247Q | 0.688 ± 0.12

Same assay, conditions: with Escherichia coli (laboratory strain); antibiotic: gentamicin; 2× MIC (MIC 0.45 µg/mL)

Variant | fold change of barcode share
L20A | 0.0394 ± 0.037
L20P | 0.0382 ± 0.034
M130A | 0.0139 ± 0.016
M162A | < 0.00292
M162D | 0.00647 ± 0.0029
V175D | < 0.00922
F176Q | < 0.0121
L226A | 0.0201 ± 0.016
L226P | 0.281 ± 0.39
L226Q | 0.00958 ± 0.0071
F247A | 0.00507 ± 0.00024
F247Q | 0.00992 ± 0.0021
